Measured values from the supplement of paper PMC4604168 (melanoma cell lines).
The list shows a part of the results. Repeats are few or missing, and single values can be far off.

Experiments:
Assay in all cases: cell count relative to DMSO control; melanoma cells; higher = more viable cells
Conditions in all cases: library dose: standard library concentration; 72 h; first compound 2 µM
G361 = tested on: G361
IPC-298 = tested on: IPC-298
IST-MEL1 = tested on: IST-MEL1
LB2518-MEL = tested on: LB2518-MEL
LOXIMVI = tested on: LOXIMVI
MEL-HO = tested on: MEL-HO
MZ2-MEL = tested on: MZ2-MEL
MeWo = tested on: MeWo
RPMI7951 = tested on: RPMI7951
RVH-421 = tested on: RVH-421
SkMel28 = tested on: SkMel28
SkMel2 = tested on: SkMel2
SkMel30 = tested on: SkMel30
SkMel5 = tested on: SkMel5
UACC257 = tested on: UACC257
UACC62 = tested on: UACC62
WM115 = tested on: WM115
WM1716 = tested on: WM1716
WM1745 = tested on: WM1745
WM3526 = tested on: WM3526
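Note: cells treated in 1,536-well plates, then fixed and DAPI-stained, with nuclei counted from automated high-throughput microscope images.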

SMILES | cell count (G361) | cell count (IPC-298) | cell count (IST-MEL1) | cell count (LB2518-MEL) | cell count (LOXIMVI) | cell count (MEL-HO) | cell count (MZ2-MEL) | cell count (MeWo) | cell count (RPMI7951) | cell count (RVH-421) | cell count (SkMel28) | cell count (SkMel2) | cell count (SkMel30) | cell count (SkMel5) | cell count (UACC257) | cell count (UACC62) | cell count (WM115) | cell count (WM1716) | cell count (WM1745) | cell count (WM3526)
CCCCCCCCCCCCCCCCCCOP(=O)([O-])OC1CC[N+](C)(C)CC1 [Perifosine] + CC1(C)CCC(c2ccc(Cl)cc2)=C(CN2CCN(c3ccc(C(=O)NS(=O)(=O)c4ccc(N[C@H](CCN5CCOCC5)CSc5ccccc5)c(S(=O)(=O)C(F)(F)F)c4)cc3)CC2)C1 [ABT263] (partner dose 2 µM) | 55.2% | 84.1% | 49.2% | 53% | 54.8% | 67.6% | 92.9% | 87.5% | 8.34% | 50.6% | 27.4% | 49.7% | 52.7% | 74.3% | 36.5% | 67.8% | 77.1% | 63.4% | 3.7% | 86.5%
C[C@@H](N)c1ccc(C(=O)Nc2ccnc3[nH]ccc23)cc1 + COc1ccc(-c2ccc3c(N4CCOCC4)nc(N4C[C@@H](C)O[C@@H](C)C4)nc3n2)cc1CO [KU0063794] (partner dose 0.1 µM) | 88.5% | 88.7% | 98.9% | 97.2% | 86.1% | 66.4% | 54.9% | 46.1% | 54.6% | 49.4% | 77.2% | 107% | 87.1% | 66.1% | 54.5% | 63.1% | 103% | 57.1% | – | 82.3%
C[C@@H](N)c1ccc(C(=O)Nc2ccnc3[nH]ccc23)cc1 + Nc1ncn([C@H]2C[C@H](O)[C@@H](CO)O2)c(=O)n1 [decitabine] (partner dose 0.5 µM) | 74.2% | 61.9% | 55.5% | 76.3% | 85.7% | 56% | 43.5% | 57.2% | 51.9% | 57.4% | 71.6% | 80.6% | 77.9% | 32.4% | 84.6% | 48.1% | 63% | 51.2% | 37.6% | 95.5%
CCCCCCCCCCCCCCCCCCOP(=O)([O-])OC1CC[N+](C)(C)CC1 [Perifosine] + c1cc(-c2cnn3cc(-c4ccc(OCCN5CCCCC5)cc4)cnc23)ccn1 [Dorsomorphin] (partner dose 2 µM) | 71.8% | 83.6% | 87.3% | 68.7% | 83.2% | 82.1% | 85.5% | 64% | 37.4% | 81.7% | 56.8% | 78.6% | 102% | 104% | 74.3% | 100% | 71.4% | 73% | – | 86.5%
CCCCCCCCCCCCCCCCCCOP(=O)([O-])OC1CC[N+](C)(C)CC1 [Perifosine] + COC(=O)c1sccc1S(=O)(=O)Nc1ccc(Nc2ccccc2)cc1OC [GSK0660] (partner dose 5 µM) | 103% | 97.9% | 93.2% | 92.3% | 148% | 91% | 90.6% | 94.5% | 40.4% | 84% | 114% | 92.9% | 90.7% | 87.8% | 93.1% | 71.5% | 74.2% | 90.1% | – | 96.4%
Cn1sc(=O)n(Cc2ccccc2)c1=O + Oc1cc(-c2nc(-c3ccccc3)[nH]c2-c2ccncc2)ccc1Cl [L779450] (partner dose 1 µM) | 74% | 85.1% | 88.7% | 98.6% | 125% | 87.6% | 106% | 107% | 97.8% | 81.8% | 39.6% | 23.1% | 82.1% | 77.6% | 77% | 47.7% | 55.5% | 80.7% | – | 51.1%
C[C@@H](N)c1ccc(C(=O)Nc2ccnc3[nH]ccc23)cc1 + COC(=O)c1sccc1S(=O)(=O)Nc1ccc(Nc2ccccc2)cc1OC [GSK0660] (partner dose 5 µM) | 93.6% | 104% | 92.1% | 118% | 105% | 77.1% | 84.7% | 73.4% | 62.2% | 51.5% | 125% | 100% | 67.2% | 63% | 59.2% | 80.8% | 116% | 50.8% | – | 112%
CCCCCCCCCCCCCCCCCCOP(=O)([O-])OC1CC[N+](C)(C)CC1 [Perifosine] + O=c1cc(-c2cccc3c2Sc2ccccc2S3)oc(N2CCOCC2)c1 [KU55933] (partner dose 5 µM) | 74% | 87.5% | 92.4% | 88.5% | 103% | 67.1% | 96.1% | 92% | 20% | 98.7% | 69.3% | 95.5% | 81.2% | 97.6% | 92.8% | 89.6% | 93.7% | 87.8% | – | 86.9%
C[C@@H](N)c1ccc(C(=O)Nc2ccnc3[nH]ccc23)cc1 + CCCCCCCCCCCC1=C(O)C(=O)C=C(O)C1=O [Embelin] (partner dose 6 µM) | 73.8% | 58.3% | 52.3% | 96.8% | 63.2% | 57.5% | 42.2% | 61.2% | 60.4% | 47.7% | 80.8% | 83.3% | 102% | 68.4% | 41.2% | 80.3% | 93.3% | 41.7% | – | 73.6%
Cn1sc(=O)n(Cc2ccccc2)c1=O + COc1ccc(COc2ccc(Cc3cnc(N)nc3N)cc2OC)cc1 [GW2580] (partner dose 5 µM) | 114% | 100% | 96.8% | 141% | 98.6% | 104% | 104% | 95.3% | 88.8% | 104% | 116% | 99.5% | 102% | 86.9% | 73.8% | 73.7% | 125% | 96.8% | – | 86.8%
